The series concerns ATP. As to the kind of experiment: switch fluorescence ratio, 500 uM ATP over buffer (Cy3 cluster intensity, sum of 5 cycles each) (fold (ratio)); higher = stronger signal-on switching upon ATP binding; sequences stand for … in TCGTCGGCAGCGTCAGATGTGTATAAGAGACAGTTTTTTTTTTTTTTTTTTTTTTTTT…TC. The settings on record: aptamer strand: ATP DNA aptamer (quencher-CACCTGGGGGAGTATTGCGGAGGAAGG + anchor), 100 nM annealed; ATP concentration: 500 uM; one replicate. The method in brief: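 Clusters with intensities outside 100-1000 RFU were excluded. The remaining Cy3-labelled switching-strand clusters on a modified Illumina MiSeq flow-cell had been annealed to 100 nM quencher-labelled ATP aptamer and imaged in selection buffer, then after 15 min with 500 uM ATP at 22 °C, for five cycles separated by NaOH stripping and re-annealing. The fluorescence ratio, averaged per switch-domain sequence, is each cluster's summed target-cycle Cy3 intensity over its summed buffer-cycle Cy3 intensity.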

Sequences with one replicate were seen in a single cluster, so their values are uncertain.
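Note: ATP exposure 15 min at 22 °C before imaging.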

With CCGCTTAAAG, the switch fluorescence ratio is 1.83.

Consider GACTTTGCCC, for which the switch fluorescence ratio was determined as 1.02.

In the case of ATCTAGGATC, the switch fluorescence ratio was found to be 0.984.

As to TTTTAAGCAC, the switch fluorescence ratio was 1.28.

With TGGACGAGGC, the switch fluorescence ratio was determined as 1.02.

For GGTGGTAACT, the switch fluorescence ratio was 0.991.

Regarding TATTATCCGA, the switch fluorescence ratio amounted to 0.959.

For the sequence CGCACAGGAT, the switch fluorescence ratio is 1.1.

As for GTCGCGCGGG, the switch fluorescence ratio turned out to be 1.04.

With GGGGCCTGCA, the switch fluorescence ratio was found to be 0.967.

In the case of GTTCTAACCT, the switch fluorescence ratio was 1.82.

On to CGGTCAGGT, for which the switch fluorescence ratio is 0.94.

For GGATCTAATT, the switch fluorescence ratio was found to be 0.988.

For the sequence AACTGCGGTT, the switch fluorescence ratio came out at 1.01.

Regarding GTTGTATAAA, the switch fluorescence ratio came out at 1.02.

For CCTGATGCTT, the switch fluorescence ratio was found to be 1.03.

On to ATGATTTATG, for which the switch fluorescence ratio worked out at 0.983.

TTTAGATG: the switch fluorescence ratio amounted to 1.01.

Take TCCGACAGC: the switch fluorescence ratio is 1.66.

As to AAATTGACCG, the switch fluorescence ratio amounted to 0.991.

In the case of GCATTTGTCT, the switch fluorescence ratio is 0.953.

In the case of TGACACTACT, the switch fluorescence ratio stood at 1.35.

On to TTCTTCAACT, for which the switch fluorescence ratio was 1.03.

As to CAAGATATTG, the switch fluorescence ratio came to 0.948.

As for TTGCAGGGCA, the switch fluorescence ratio was 1.01.

With GCATGAGATG, the switch fluorescence ratio was found to be 0.963.

Regarding TTTTAGCTTG, the switch fluorescence ratio was determined as 1.

As for GGAATTATAT, the switch fluorescence ratio worked out at 1.05.

Regarding AATAGTGCGG, the switch fluorescence ratio came to 1.02.

With GGCTACAGCC, the switch fluorescence ratio amounted to 0.978.

For CAGTTATATC, the switch fluorescence ratio is 1.03.

As to ATGAACTTGA, the switch fluorescence ratio was determined as 1.04.

Consider AGGAAACGAC, for which the switch fluorescence ratio amounted to 1.08.

In the case of CTGAAATATC, the switch fluorescence ratio is 2.43.

Turning to TGGGGAAGGC, the switch fluorescence ratio is 1.03.

As for TACGCGACGG, the switch fluorescence ratio was determined as 1.1.

For TGGTTTGCAC, the switch fluorescence ratio was 1.12.

As to TCGTGAAACA, the switch fluorescence ratio worked out at 0.995.

For GTTTCCACCT, the switch fluorescence ratio was 1.14.

On to ATTTCGGCGT, for which the switch fluorescence ratio amounted to 1.01.

In the case of TTAAATTTG, the switch fluorescence ratio came to 0.978.

In the case of CGATTCTTGA, the switch fluorescence ratio was found to be 1.01.

With GCTAGTTATT, the switch fluorescence ratio worked out at 1.01.

Turning to TTGGTCGAC, the switch fluorescence ratio was 0.993.

In the case of CTAGGGCGAG, the switch fluorescence ratio came out at 0.979.

For CCTTATACA, the switch fluorescence ratio was 1.

For TGGCTACTTG, the switch fluorescence ratio is 0.957.

On to CTATGCAGAC, for which the switch fluorescence ratio was determined as 4.47.

For AGAGTTAC, the switch fluorescence ratio came to 0.986.

In the case of CCAGGATTCG, the switch fluorescence ratio stood at 1.

For the sequence TTTCAAGGAA, the switch fluorescence ratio came to 0.993.

Regarding GAATTAGAGC, the switch fluorescence ratio came out at 0.917.

ATTTCATAGT: the switch fluorescence ratio is 0.983.

With ACGATGTGTC, the switch fluorescence ratio came to 1.03.

In the case of TCCGAAGGCA, the switch fluorescence ratio came out at 2.01.

On to AGGTCTAAAT, for which the switch fluorescence ratio was 0.973.

Take AGGGCTGAAA: the switch fluorescence ratio amounted to 1.

Consider CGGTGGGCTT, for which the switch fluorescence ratio was 1.01.

With ACTGAAAGCG, the switch fluorescence ratio turned out to be 0.983.

Regarding GGCAACTATT, the switch fluorescence ratio came to 1.02.

Regarding GTGCGGAGCG, the switch fluorescence ratio is 0.97.

Take TTTCAAGCGG: the switch fluorescence ratio was found to be 1.01.

For CTTGCATCG, the switch fluorescence ratio was determined as 1.04.

CGTAATACGG: the switch fluorescence ratio was 2.59.

Regarding CTCTATGTCA, the switch fluorescence ratio is 0.995.

As for GATCCGTTTG, the switch fluorescence ratio is 0.976.

Take GTTTAGATGG: the switch fluorescence ratio was found to be 1.

As for ACATGGTGCT, the switch fluorescence ratio worked out at 1.05.

With GCTATTCGGC, the switch fluorescence ratio was determined as 0.943.

Regarding TTTTGGGCGA, the switch fluorescence ratio turned out to be 1.01.

For the sequence ACAACAGCGG, the switch fluorescence ratio is 1.04.

On to CGAGCATTAA, for which the switch fluorescence ratio came out at 3.84.

ACAGTTGTTT: the switch fluorescence ratio is 1.06.

On to AGGGATAAAC, for which the switch fluorescence ratio stood at 1.03.

With CCCCTTCCCT, the switch fluorescence ratio amounted to 1.09.

With ATCCCGGAGC, the switch fluorescence ratio came out at 1.63.

As for AGGAATATGA, the switch fluorescence ratio was determined as 1.02.

Consider AAGAAACTAT, for which the switch fluorescence ratio was 0.979.

Consider CTAAATAGTT, for which the switch fluorescence ratio was found to be 0.97.

In the case of GGCTGTGACG, the switch fluorescence ratio came out at 1.

CAACAAAAAT: the switch fluorescence ratio was found to be 0.911.

Take TGTAAGCTAT: the switch fluorescence ratio came to 1.01.

In the case of TAATACGACT, the switch fluorescence ratio amounted to 1.08.

With GGTTCGTGTG, the switch fluorescence ratio came out at 0.988.

As to AACCGCGCAG, the switch fluorescence ratio is 1.1.

ACTAGCCACG: the switch fluorescence ratio worked out at 1.05.

Regarding TAATGTGCCG, the switch fluorescence ratio worked out at 1.

On to TTTAAGAAA, for which the switch fluorescence ratio was found to be 0.959.

Consider GAGAAGGGT, for which the switch fluorescence ratio is 0.975.

As to CTGCTCTTA, the switch fluorescence ratio was 0.989.

On to AGACTAATTG, for which the switch fluorescence ratio came out at 0.989.

For the sequence TGATCGCATT, the switch fluorescence ratio is 1.79.

Regarding CCGGACGAAG, the switch fluorescence ratio is 0.871.

Turning to GGATGGTCAC, the switch fluorescence ratio turned out to be 0.965.

As to AAATTCTAGC, the switch fluorescence ratio came to 1.02.

In the case of GGCTCTTATC, the switch fluorescence ratio turned out to be 1.05.

GGGGCGAC: the switch fluorescence ratio was 1.04.

For GGTTGTTATG, the switch fluorescence ratio worked out at 0.999.

Regarding CAGGGGGCTG, the switch fluorescence ratio is 0.969.

In the case of TAAGGAGATA, the switch fluorescence ratio came to 1.02.

TAAGGCAACG: the switch fluorescence ratio is 0.999.

With TTGTTTGTCT, the switch fluorescence ratio is 1.03.

For GGAGTCTTAT, the switch fluorescence ratio was 0.979.

Regarding ACGGCCCAAG, the switch fluorescence ratio is 1.06.

On to TGTTGAGCGT, for which the switch fluorescence ratio worked out at 0.957.

On to ATTTTAACAT, for which the switch fluorescence ratio amounted to 1.02.

As for ATTTAGTCGG, the switch fluorescence ratio turned out to be 0.965.

Turning to GGTCGACCAC, the switch fluorescence ratio was determined as 1.

As to GGAAGATGCC, the switch fluorescence ratio turned out to be 1.01.

On to GTGATTTCAC, for which the switch fluorescence ratio came out at 1.04.

AACCCACTGA: the switch fluorescence ratio is 1.02.

Turning to GGACATAACC, the switch fluorescence ratio stood at 1.07.

Turning to TTAGTAAGT, the switch fluorescence ratio is 1.01.

In the case of TATATGCGCT, the switch fluorescence ratio worked out at 1.01.

As to ATCGAAGTTA, the switch fluorescence ratio was 1.03.

CAGTTGAGAC: the switch fluorescence ratio stood at 1.01.

As for GCGCGCAGCT, the switch fluorescence ratio is 0.973.

Regarding TTCCCAACAA, the switch fluorescence ratio was 1.02.

ACCTCCCTTC: the switch fluorescence ratio was 1.82.

ATGATGCCGT: the switch fluorescence ratio was found to be 1.06.

The values above are taken from the supplement of paper PMC10126150.
